In paper PMC10838290:
Results are given in words; binding and its absence hold for the method and conditions named. In cells and extracts the contact can be indirect. Some entries that bind do so weakly or less than the wild type.

Amino acid sequences for entries named in this document (tags omitted).
UniProt Q15327: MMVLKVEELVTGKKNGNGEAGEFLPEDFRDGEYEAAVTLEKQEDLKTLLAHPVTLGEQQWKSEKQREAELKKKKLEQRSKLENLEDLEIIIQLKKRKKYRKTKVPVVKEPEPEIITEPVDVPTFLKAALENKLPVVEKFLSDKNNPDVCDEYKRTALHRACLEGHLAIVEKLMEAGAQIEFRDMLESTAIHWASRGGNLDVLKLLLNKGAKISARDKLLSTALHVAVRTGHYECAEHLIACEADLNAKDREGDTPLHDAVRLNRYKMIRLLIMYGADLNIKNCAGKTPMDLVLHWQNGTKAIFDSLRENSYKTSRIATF

What was measured:
[1] = molecular target: ANKRD1 fused with a V5-tag, expressed in HEK293 cells (human) (UniProt Q15327); test: co-IP; V5-tag magnetic beads, 250 ug lysate of ANKRD1-overexpressing HEK293 cells digested with DNase I; 50 mM Tris-HCl pH 7.4, 150 mM NaCl, 1 mM EDTA, 1% NP-40, 1% Na-deoxycholate, 0.05% SDS; 4 °C, 12 hours; immunoblot for ANKRD1, JUN, FOSL2
[2] = molecular target: ANKRD1 fused with a V5-tag, expressed in human dermal fibroblasts (human) (UniProt Q15327); test: proximity ligation; Duolink PLA on fixed, permeabilised cells with anti-ANKRD1, anti-JUN and anti-FOSL2 (FRA2) antibodies; HDFs infected with ANKRD1OE or CTRL vector, CAFs and matched HDFs, CAFs with shANKRD1 or ANKRD1-FANA ASO; puncta per cell
[3] = molecular target: ANKRD1, endogenous in cancer-associated fibroblasts (human (endogenous in CAFs)) (UniProt Q15327); test: as above
[4] = molecular target: T1, c-JUN, endogenous in human dermal fibroblasts and cancer-associated fibroblasts (human (endogenous in HDFs and CAFs)), P05412; test: as above; settings: remark: other sources report otherwise
T1 chain: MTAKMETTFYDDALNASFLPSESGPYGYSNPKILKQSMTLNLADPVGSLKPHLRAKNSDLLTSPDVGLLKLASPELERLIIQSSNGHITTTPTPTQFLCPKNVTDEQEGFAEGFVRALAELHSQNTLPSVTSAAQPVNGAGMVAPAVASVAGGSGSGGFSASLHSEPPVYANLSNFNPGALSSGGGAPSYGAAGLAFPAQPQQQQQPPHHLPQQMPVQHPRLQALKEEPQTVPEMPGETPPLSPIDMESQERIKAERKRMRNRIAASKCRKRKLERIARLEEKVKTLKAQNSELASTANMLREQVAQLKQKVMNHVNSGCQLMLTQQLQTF

B1: FOSL2, endogenous in HEK293 cells (protein, UniProt P15408 1-326)
chain: MYQDYPGNFDTSSRGSSGSPAHAESYSSGGGGQQKFRVDMPGSGSAFIPTINAITTSQDLQWMVQPTVITSMSNPYPRSHPYSPLPGLASVPGHMALPRPGVIKTIGTTVGRRRRDEQLSPEEEEKRRIRRERNKLAAAKCRNRRRELTEKLQAETEELEEEKSGLQKEIAELQKEKEKLEFMLVAHGPVCKISPEERRSPPAPGLQPMRSGGGSVGAVVVKQEPLEEDSPSSSSAGLDKAQRSVIKPISIAGGFYGEEPLHTPIVVTSTPAVTPGTSNLVFTYPSVLEQESPASPSESCSKAHRRSSSSGDQSSDSLNSPTLLAL
binding [1]: binds

B2: FOSL2, endogenous in human dermal fibroblasts and cancer-associated fibroblasts (protein, UniProt P15408 1-326)
chain: MYQDYPGNFDTSSRGSSGSPAHAESYSSGGGGQQKFRVDMPGSGSAFIPTINAITTSQDLQWMVQPTVITSMSNPYPRSHPYSPLPGLASVPGHMALPRPGVIKTIGTTVGRRRRDEQLSPEEEEKRRIRRERNKLAAAKCRNRRRELTEKLQAETEELEEEKSGLQKEIAELQKEKEKLEFMLVAHGPVCKISPEERRSPPAPGLQPMRSGGGSVGAVVVKQEPLEEDSPSSSSAGLDKAQRSVIKPISIAGGFYGEEPLHTPIVVTSTPAVTPGTSNLVFTYPSVLEQESPASPSESCSKAHRRSSSSGDQSSDSLNSPTLLAL
binding [2]: binds | binding [3]: binds

B3: FOSL2, endogenous in human dermal fibroblasts and cancer-associated fibroblasts, P15408 1-326 (protein)
chain: MYQDYPGNFDTSSRGSSGSPAHAESYSSGGGGQQKFRVDMPGSGSAFIPTINAITTSQDLQWMVQPTVITSMSNPYPRSHPYSPLPGLASVPGHMALPRPGVIKTIGTTVGRRRRDEQLSPEEEEKRRIRRERNKLAAAKCRNRRRELTEKLQAETEELEEEKSGLQKEIAELQKEKEKLEFMLVAHGPVCKISPEERRSPPAPGLQPMRSGGGSVGAVVVKQEPLEEDSPSSSSAGLDKAQRSVIKPISIAGGFYGEEPLHTPIVVTSTPAVTPGTSNLVFTYPSVLEQESPASPSESCSKAHRRSSSSGDQSSDSLNSPTLLAL
binding [4]: binds
